Experimental data taken from the supplement of paper PMC3334620.
The full ranking holds about 33,000 sequences; the median of “E-score (-0.5 to 0.5)” is about -0.011, and the highest 2% start at about 0.28. The list shows a part of the results.

biological target: T1, Gcr1 (UniProt P07261); assay: PBM E-score (8-mer binding enrichment) (E-score (-0.5 to 0.5)); higher = stronger / more preferred TF binding; most listed sequences are background and not binding sites; details: protein concentration: 100 nM; construct: GST-full length
T1 sequence: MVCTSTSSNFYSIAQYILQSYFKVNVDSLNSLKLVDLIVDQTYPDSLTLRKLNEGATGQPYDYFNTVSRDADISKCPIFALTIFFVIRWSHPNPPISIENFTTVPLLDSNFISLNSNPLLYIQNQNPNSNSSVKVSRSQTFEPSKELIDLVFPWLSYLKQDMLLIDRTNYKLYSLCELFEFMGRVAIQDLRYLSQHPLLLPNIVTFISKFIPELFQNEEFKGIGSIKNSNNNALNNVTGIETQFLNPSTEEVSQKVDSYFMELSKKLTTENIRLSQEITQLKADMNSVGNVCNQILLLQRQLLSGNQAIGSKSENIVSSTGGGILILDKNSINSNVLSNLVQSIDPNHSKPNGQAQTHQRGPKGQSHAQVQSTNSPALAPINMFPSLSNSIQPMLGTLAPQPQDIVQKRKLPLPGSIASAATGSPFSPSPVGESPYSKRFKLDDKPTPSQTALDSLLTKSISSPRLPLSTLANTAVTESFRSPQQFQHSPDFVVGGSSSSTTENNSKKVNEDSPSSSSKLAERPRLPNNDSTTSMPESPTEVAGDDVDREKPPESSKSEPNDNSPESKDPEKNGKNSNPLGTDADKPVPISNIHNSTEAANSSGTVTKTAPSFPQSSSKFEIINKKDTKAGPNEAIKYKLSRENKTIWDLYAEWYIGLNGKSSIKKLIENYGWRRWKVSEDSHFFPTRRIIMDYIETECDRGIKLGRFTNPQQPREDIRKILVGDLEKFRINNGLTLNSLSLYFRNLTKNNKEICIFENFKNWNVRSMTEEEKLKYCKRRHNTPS
Procedure, shortened: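 Each ungapped eight-base word and its reverse complement, pooled, received an E-score from the Universal PBM Analysis Suite. Underlying scans, normalised with masliner, recorded fluorescent anti-GST bound to GST-tagged yeast transcription factors. These were applied at about 100-200 nM to universal all-10-mer Agilent arrays double-stranded by primer extension.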

Sequence | PBM E-score
GATCCGAC | -0.175
ACTCGGCT | 0.00557
AATCTTAC | 0.0708
AGTCCATA | 0.0134
CGGCAGCC | 0.382
GCAGACCC | -0.0344
CGTATTCC | 0.24
CATGGTGG | -0.0928
GCGCCTAA | 0.407
ACTAACCA | 0.117
CATAGGAG | 0.11
ACCCGACG | -0.182
AGAGATTA | -0.207
CCGTTGCC | 0.00903
CCCGGCGC | 0.0481
ATCTGAAT | 0.0942
ACTGAAGA | 0.106
AGGGGGAG | -0.157
AGCCGTTG | 0.0658
AGAACCGG | 0.214
ATCCCCAG | 0.126
ACGCCTCC | 0.0986
AAATCCTA | 0.0198
CACCGAAA | 0.189
ACCAATTG | -0.0455

Sequence | PBM E-score
ATCTGCGG | 0.157
CTCACAGC | 0.124
CCATGTAA | 0.0814
AGCGGAAA | -0.0908
ACTCTCAT | -0.114
AGATACCA | 0.246
CCGAACTC | -0.0172
AGTGCAGG | -0.0784
ACAGGGAG | 0.109
GGCTGTCA | -0.0699
CCACGGCA | 0.115
AGTCATTG | -0.0859
AGTGTTAG | 0.0279
TCAGGCCA | -0.118
ATACCTTA | 0.0274
TAAGGCAA | -0.0981
AACGAAGC | 0.00062
CGACACGA | -0.0946
CTCAATTA | 0.0305
CCTTCTCC | -0.0698
CCAACGTC | 0.0498
ATCCTCAT | 0.0995
AGGCAGTC | -0.0354
GGTCCGCA | -0.0582
CTAATAAG | 0.104

Sequence | PBM E-score
ACCTGCAT | -0.0634
AAGGCATG | -0.252
AGGCGTAA | 0.0474
CGCATACC | 0.0741
ACTAGCAT | 0.0973
ACATATTC | -0.0095
CAGACGGA | -0.102
AAACCTGT | 0.048
CCGATCCA | -0.0319
AATCGGCC | -0.124
GGTGATTA | -0.0403
AACGGGCT | -0.0767
ACCCTCCA | -0.248
CATCAGGG | -0.0704
AGCAACCG | 0.0554
CTGACTTC | 0.0741
GGCCCCAC | 0.171
CACGCTGG | -0.101
CAAGTACA | -0.0256
AAAGTTTC | -0.0214
CAGGTGAG | -0.17
GGCAATGA | -0.202
GAGTCGCA | -0.0558
AGGTTGAC | -0.121
GTACATTA | 0.0835

Sequence | PBM E-score
AAGGATTA | -0.0552
CTAGTTAC | 0.0374
AACTTGCG | 0.179
ATCAGACA | 0.0171
AATTTGCA | 0.113
GCGTAACA | -0.179
GTCAAACA | -0.19
CCCATGGC | -0.0318
CTCCTTCA | -0.1
CAGGGGCA | -0.0399
AGGGATAT | -0.234
ATAAACAA | 0.171
AGTTTGTG | -0.0544
CTCATGAA | -0.0263
AATTTAAC | 0.0873
CACACTAC | 0.0353
GTCCCGTA | -0.0249
ATCCACGG | 0.116
CCGTATCC | 0.0884
CATGTGCC | -0.113
TTAAAAAA | 0.246
GTAGCATA | -0.0283
ATTATTCG | 0.218
CGTAATAC | 0.0883
CCGCTGGA | 0.199

Sequence | PBM E-score
ACCCCGTG | -0.0766
CGAGCGAG | -0.157
GTAAGGAA | -0.0734
AGGTGTAG | -0.134
CATGCAGA | -0.0148
CTAGGCTA | -0.116
AGCGGCAC | -0.059
AATCGTAT | 0.0808
GATATTAC | 0.091
AGCGGTGC | 0.00983
CGCGTTTC | -0.0862
CCCTTGGC | -0.185
GTCTGGGA | -0.192
AAATAGAA | -0.145
GGGTAACC | -0.1
AAATATTC | 0.149
CGAGTAAA | 0.00307
ATGTGCGG | -0.00564
ACTATTCC | 0.0212
GGTACTGA | -0.058
GAGTCGCC | -0.0807
CGGTTGAG | -0.0776
GCGCTAAA | 0.232
GTTCGTTA | -0.142
AAGTCGGT | -0.0631

Sequence | PBM E-score
GGCACTAC | -0.154
CGATTTAG | 0.161
AACGCGTA | 0.014
AGAACACG | 0.156
CAACACAG | -0.126
GGCGTTGA | -0.102
GTTACTGA | -0.0899
ACCTTGCC | -0.00557
ACGCCAAC | -0.00493
GGCCGAGA | -0.181
TGCTGGAA | 0.136
ACACGCCC | 0.0251
GGAATCAA | 0.178
GACATGGC | -0.266
CATACCCG | 0.00256
GACCCGGA | -0.0989
CCAAGTGC | -0.0928
CCCGAGCA | -0.0641
CGGACAAC | -0.0131
ATAGTGAA | -0.116
GAGTACAA | -0.0749
ATGTCTTA | -0.0265
CCAGCTAA | -0.116
ATTCAGTA | 0.0756
ACACGGGT | -0.114

Sequence | PBM E-score
GTAACGCA | 0.0114
CCAGAGTC | 0.21
ACAAACAT | 0.145
AAAAGCTG | -0.181
CACATGAC | -0.16
AATAATGT | 0.128
CGAACGGA | -0.0163
GTAATGCA | -0.0798
TCCCAAGA | 0.0324
ACCTACAC | -0.0279
GACCGGCA | -0.0929
GTGATGAA | -0.0109
ATTTAAGA | 0.0701
ACGTAGCC | 0.14
ACATTACC | -0.0191
ACAGGGCT | -0.181
GTACCCCA | 0.119
CTACGTCC | 0.0209
CCCCTCAA | -0.118
AAGGTGTG | 0.033
GGGCTTAC | -0.0118
ACATGATA | 0.151
